# Experimental data: the antibiotic and cytotoxicity screens of Wong et al. (2023)
# Some of the results follow.
# Assays:
# HSkMC = human skeletal muscle cells; experiment: cytotoxicity call (relative viability < 0.9); settings: 10 µM
# HepG2 = experiment: cytotoxicity call (relative viability < 0.9); settings: 10 µM
# S. aureus RN4220 = experiment: growth inhibition call (relative growth <= 0.2); settings: 50 µM
SMILES,cytotoxicity call (HSkMC),cytotoxicity call (HepG2),growth inhibition call (S. aureus RN4220)
C[C@H](CO)N1C[C@H](C)[C@H](CN(C)CC2CCCCC2)OCCCC[C@H](C)Oc2ccc(NS(=O)(=O)c3cccs3)cc2C1=O,inactive,inactive,inactive
O=C(C[C@H]1CC[C@@H](NS(=O)(=O)c2ccccc2F)[C@H](CO)O1)NCCCN1CCOCC1,inactive,inactive,inactive
C[C@H]1CCCCO[C@@H](CN(C)C(=O)Nc2ccc(C(F)(F)F)cc2)[C@@H](C)CN([C@@H](C)CO)C(=O)c2cc(NC(=O)Cc3ccccc3)ccc2O1,inactive,inactive,inactive
Cc1noc(C)c1NC(=O)N(C)C[C@@H]1OCCCC[C@@H](C)Oc2ccc(NC(=O)CCC(F)(F)F)cc2C(=O)N([C@@H](C)CO)C[C@H]1C,inactive,inactive,inactive
C[C@@H]1CN([C@H](C)CO)C(=O)Cc2cc(NS(=O)(=O)c3cccs3)ccc2O[C@@H]1CN(C)S(=O)(=O)c1ccccc1,inactive,inactive,inactive
C[C@@H]1CN([C@H](C)CO)C(=O)c2cc(NC(=O)CCC(F)(F)F)ccc2O[C@@H](C)CCCCO[C@H]1CN(C)S(=O)(=O)c1ccccc1,inactive,inactive,inactive
C[C@H]1CN([C@@H](C)CO)C(=O)c2cccc(NS(=O)(=O)c3cccs3)c2O[C@H]1CN(C)S(C)(=O)=O,inactive,inactive,inactive
C[C@@H]1CN([C@H](C)CO)C(=O)c2cccc(NC(=O)c3ccc(-c4nccs4)cc3)c2O[C@H]1CN(C)C(=O)Nc1ccc(F)cc1,inactive,inactive,inactive
CC(C)N(C)Cc1nnc2n1CCN(CCO)C2,inactive,inactive,inactive
C[C@@H]1CN([C@@H](C)CO)S(=O)(=O)c2ccc(C#CC3CC3)cc2O[C@@H]1CN(C)Cc1ccc(F)cc1,inactive,inactive,inactive
COc1cc(C)c(C(=O)O)c(OC(C)=O)c1,inactive,inactive,inactive
COc1ccc(CN(C)C[C@H]2Oc3ccc(NC(=O)CCN4CCOCC4)cc3CC(=O)N([C@H](C)CO)C[C@@H]2C)cc1,inactive,inactive,inactive
C[C@H](CO)N1C[C@H](C)[C@H](CN(C)Cc2ccc(C(F)(F)F)cc2)Oc2ccc(NS(=O)(=O)c3ccc(Cl)cc3)cc2CC1=O,active,active,inactive
C[C@@H]1CN([C@H](C)CO)C(=O)c2cc(NC(=O)Nc3ccc4c(c3)OCO4)ccc2O[C@@H](C)CCCCO[C@H]1CN(C)C(=O)c1ccccc1,inactive,inactive,inactive
C[C@@H]1CCCCO[C@H](CN(C)S(=O)(=O)c2ccccc2)[C@@H](C)CN([C@H](C)CO)C(=O)c2cc(NC(=O)Nc3ccc4c(c3)OCO4)ccc2O1,inactive,inactive,inactive
Cc1noc(C)c1S(=O)(=O)Nc1ccc2c(c1)C(=O)N([C@H](C)CO)C[C@H](C)[C@H](CN(C)S(=O)(=O)c1ccc(F)cc1)O2,inactive,inactive,inactive
COc1ccc(S(=O)(=O)Nc2ccc3c(c2)CC(=O)N([C@H](C)CO)C[C@@H](C)[C@H](CN(C)S(=O)(=O)c2ccc(C)cc2)O3)cc1,inactive,inactive,inactive
C[C@@H]1CN([C@@H](C)CO)C(=O)c2cc(NS(=O)(=O)c3cn(C)cn3)ccc2O[C@@H](C)CCCCO[C@H]1CN(C)C(=O)c1ccncc1,inactive,inactive,inactive
C[C@H]1CN([C@@H](C)CO)C(=O)c2cccc(NS(=O)(=O)c3cn(C)cn3)c2O[C@H]1CN(C)S(C)(=O)=O,inactive,inactive,inactive
C[C@H](CO)N1C[C@H](C)[C@@H](CN(C)CC2CC2)OCCCC[C@H](C)Oc2ccc(NC(=O)c3ccccc3)cc2C1=O,inactive,inactive,inactive
C[C@H](CO)N1C[C@H](C)[C@H](CN(C)Cc2ccc(C(=O)Nc3ccccc3N)cc2)Oc2ccc(NC(=O)Nc3cccc4ccccc34)cc2C1=O,inactive,active,inactive
C[C@H](CO)N1C[C@H](C)[C@H](CN(C)C(=O)CN2CCOCC2)Oc2ncc(C#C[C@@H](C)O)cc2C1=O,inactive,inactive,inactive
Cc1noc(C)c1NC(=O)N(C)C[C@H]1Oc2c(NS(C)(=O)=O)cccc2C(=O)N([C@H](C)CO)C[C@H]1C,inactive,inactive,inactive
Cc1noc(C)c1NC(=O)N(C)C[C@@H]1Oc2ccc(NC(=O)CCN3CCOCC3)cc2CC(=O)N([C@@H](C)CO)C[C@@H]1C,inactive,inactive,inactive
C[C@H]1CN([C@@H](C)CO)C(=O)c2cccc(NC(=O)Nc3ccc(F)cc3)c2O[C@H]1CN(C)Cc1ccc(Oc2ccccc2)cc1,inactive,inactive,inactive
C[C@@H]1CN([C@@H](C)CO)C(=O)Cc2cc(NS(=O)(=O)c3cn(C)cn3)ccc2O[C@H]1CN(C)S(=O)(=O)c1ccc(F)cc1,inactive,inactive,inactive
C[C@H]1CCCCO[C@H](CN(C)S(=O)(=O)c2cccs2)[C@@H](C)CN([C@@H](C)CO)C(=O)c2cc(NC(=O)CCC(F)(F)F)ccc2O1,inactive,inactive,inactive

SMILES,cytotoxicity call (HSkMC),cytotoxicity call (HepG2),growth inhibition call (S. aureus RN4220)
COc1ccc(S(=O)(=O)N(C)C[C@H]2Oc3c(NC(=O)Nc4cccc5ccccc45)cccc3C(=O)N([C@@H](C)CO)C[C@@H]2C)cc1,inactive,active,inactive
Cc1noc(C)c1NC(=O)Nc1ccc2c(c1)CC(=O)N([C@H](C)CO)C[C@H](C)[C@H](CN(C)Cc1ccc(C(=O)Nc3ccccc3N)cc1)O2,inactive,inactive,inactive
CC(=O)c1ccc(OCc2c(-c3ccccc3)nnn2CC(=O)NS(=O)(=O)c2ccc(F)cc2)cc1,inactive,inactive,inactive
COCC#Cc1ccc2c(c1)O[C@@H](CN(C)S(=O)(=O)c1cccc(OC)c1)[C@@H](C)CN([C@H](C)CO)S2(=O)=O,inactive,inactive,inactive
CO[C@@H]1CN(C)C(=O)c2ccc(NC(=O)Nc3ccccc3)cc2OC[C@H](C)N(C(=O)CN(C)C)C[C@@H]1C,inactive,inactive,inactive
COc1ccc(NC(=O)N(C)C[C@@H]2Oc3ccc(NC(=O)CCCCCC(=O)Nc4ccccc4N)cc3C(=O)N([C@H](C)CO)C[C@@H]2C)cc1,inactive,active,inactive
CC(C)NC(=O)N(C)C[C@@H]1Oc2ccc(NS(=O)(=O)c3ccc(F)cc3)cc2CC(=O)N([C@@H](C)CO)C[C@H]1C,inactive,inactive,inactive
COc1ccccc1CNC(=O)C[C@H]1C[C@H]2c3cc(NC(=O)c4cccnc4)ccc3O[C@H]2[C@@H](CO)O1,inactive,inactive,inactive
C[C@H](O)C#Cc1cnc2c(c1)C(=O)N([C@H](C)CO)C[C@H](C)[C@H](CN(C)C(=O)CN1CCOCC1)O2,inactive,inactive,inactive
Cc1ccc(S(=O)(=O)N(C)C[C@@H]2Oc3c(NC(=O)Nc4ccc(C(F)(F)F)cc4)cccc3C(=O)N([C@@H](C)CO)C[C@@H]2C)cc1,inactive,inactive,inactive
CN(C)C(=O)C[C@H]1CC[C@@H](NC(=O)C2CCOCC2)[C@@H](CO)O1,inactive,inactive,inactive
Cc1ccc(S(=O)(=O)Nc2ccc3c(c2)CC(=O)N([C@@H](C)CO)C[C@H](C)[C@H](CN(C)C(=O)Nc2ccc(C(F)(F)F)cc2)O3)cc1,inactive,inactive,inactive
CC[C@@H]1CN(C(=O)OC)N1,inactive,inactive,inactive
CCN(CC)[C@H]1CCS(=O)(=O)C1,inactive,inactive,inactive
CC(C)NC(=O)N(C)C[C@@H]1Oc2ccc(NC(=O)CCN3CCOCC3)cc2CC(=O)N([C@@H](C)CO)C[C@H]1C,inactive,inactive,inactive
C[C@H](CO)N1C[C@H](C)[C@@H](CN(C)C(=O)CN2CCOCC2)Oc2cc(/C=C/c3ccccc3)ccc2S1(=O)=O,inactive,inactive,inactive
CC(C)NC(=O)N1Cc2cc(C(=O)NC3Cc4ccccc4C3)nc(-c3cccc(-c4cccnc4)c3)c2[C@@H]1CCO,active,inactive,inactive
CC(C)(C)[S@](=O)N1Cc2cc(C(=O)N[C@H]3CCN(Cc4ccccc4)C3)nc(-c3cccc(-c4ccncc4)c3)c2[C@@H]1CCO,inactive,inactive,inactive
Cc1ccc(S(=O)(=O)Nc2ccc3c(c2)C(=O)N([C@H](C)CO)C[C@@H](C)[C@@H](CN(C)C(=O)Nc2ccccc2)OCCCC[C@H](C)O3)cc1,inactive,inactive,inactive
C=CCOC(=O)[C@H]1[C@@H]2C(=O)O[C@@H](c3ccccc3)[C@@H](c3ccccc3)N2[C@@H](c2ccc(OCCOC(=O)[C@@H]3C[C@@H]4C(=O)N[C@@H](CCCC[N+](C)(C)C)C(=O)N4[C@@H]3c3ccc(O)cc3)cc2)[C@]12C(=O)Nc1ccc(I)cc12,inactive,inactive,inactive
C=CCNC(=O)[C@@H]1[C@H]2C(=O)O[C@H](c3ccccc3)[C@H](c3ccccc3)N2[C@H](c2ccc(OCCO)cc2)[C@@]12C(=O)Nc1ccc(C#Cc3ccc(OC)cc3)cc12,inactive,inactive,inactive
COc1ccc(CNC(=O)C[C@@H]2CC[C@H]3[C@H](COc4ccc(NC(=O)C(C)C)cc4C(=O)N3C)O2)cc1,inactive,inactive,inactive
C[C@H]1CN([C@@H](C)CO)S(=O)(=O)c2ccc(-c3cncnc3)cc2O[C@H]1CN(C)C(=O)NC1CCCC1,inactive,inactive,inactive
CN1C[C@H](O)COC[C@H]2O[C@H](CC(=O)N3CCN(c4ccccc4)CC3)CC[C@@H]21,inactive,inactive,inactive
COc1cccc(-c2ccc3c(c2)O[C@@H](CN(C)C(=O)C2CCOCC2)[C@H](C)CN([C@H](C)CO)S3(=O)=O)c1,inactive,inactive,inactive
COc1ccc(CN(C)C[C@H]2Oc3ccc(NC(=O)Nc4cccc5ccccc45)cc3CC(=O)N([C@@H](C)CO)C[C@H]2C)cc1,inactive,active,inactive
C[C@@H]1CN([C@@H](C)CO)C(=O)Cc2cc(NC(=O)Nc3cccc4ccccc34)ccc2O[C@@H]1CN(C)Cc1ccc(Oc2ccccc2)cc1,inactive,inactive,inactive
